Measurements published in patent US20170306038A1, “COMPOSITIONS AND METHODS OF USE FOR AUGMENTED IMMUNE RESPONSE AND CANCER THERAPY” (priority 2014, published 2017).
Numbering of substitutions follows the chain as printed.

B1: MAB4: Humaneered human GITR agonist antibody, IgG1 kappa; heavy chain SEQ ID NO:73, light chain SEQ ID NO:66 (antibody)
heavy: EVQLVESGGGLVQSGGSLRLSCAASGFSLSSYGVDWVRQAPGKGLEWVGVIWGGGGTYYASSLMGRFTISRDNSKNTLYLQMNSLRAEDTAVYYCAKHAYGHDGGFAMDYWGQGTLVTVSSASTKGPSVFPLAPSSKSTSGGTAALGCLVKDYFPEPVTVSWNSGALTSGVHTFPAVLQSSGLYSLSSVVTVPSSSLGTQTYICNVNHKPSNTKVDKRV[human IgG1 Fc not printed]
light: EIVMTQSPATLSVSPGERATLSCRASESVSSNVAWYQQRPGQAPRLLIYGASNRATGIPARFSGSGSGTDFTLTISRLEPEDFAVYYCGQSYSYPFTFGQGTKLEIKRTVAAPSVFIFPPSDEQLKSGTASVVCLLNNFYPREAKVQWKVDNALQSGNSQESVTEQDSKDSTYSLSSTLTLSKADYEKHKVYACEVTHQGLSSPVTKSFNRGEC
B2: MAB5: Humaneered human GITR agonist antibody, IgG1 kappa; heavy chain SEQ ID NO:75, light chain SEQ ID NO:66 (antibody)
heavy: B1 heavy with V48L, A60T
light: B1 light
B3: MAB8: MAB4 variant with glycation site KH changed to RN; heavy chain SEQ ID NO:106, light chain SEQ ID NO:66 (antibody)
heavy: B1 heavy with K97R, H98N
light: B1 light

What was measured:
cGITR = experiment: Biacore binding affinity to cyno GITR; set-up: species or system cynomolgus; settings: in words
Excerpt: (§1) The anti-GITR agonist antibodies of the invention bind selectively to human and cyno GITR in a number of biochemical assays, including flow cytometry, ELISA, Biacore, and Protagen™ chip assays.

cyno GITR = experiment: NFκB-Luciferase reporter gene assay, 293 cells with cyno GITR; format: cell-based, cynomolgus; settings: 293 cells stably transfected with cyno GITR; antibodies cross-linked
Experimental: (§2) To generate the 293-hGITR-NFκB reporter gene cells line, 293 cells were stably transfected with an NFκB-Luciferase reporter gene and human GITR (or cyno GITR). Activation of the GITR signaling pathway in these cells was determined by measuring the levels of luciferase induced within the cells after a 24 hour incubation with GITR-L or agonistic antibody. To assess the effects of cross-linking Abs, they were incubated with an excess of a F(ab′)2 goat anti-human Fcγ fragment specific antibody or protein A before using in the reporter gene assay.
Functional activity of MABs were tested in an NFkB reporter gene assay for agonist activity. MAB was diluted to 6 μg/mL in PBS and incubated for 30 minutes at room temperature in the presence/absence of a 3 fold excess of F(ab′)2 fragment goat anti-human Fcγ specific crosslinker. Alternatively, MAB was diluted to 6 μg/mL in PBS and incubated for 30 minutes at room temperature in the presence/absence of a 2 fold excess of Protein A. 10 μL of incubated MAB was then added to a 384 well white clear bottomed assay plate. A HEK-293 cell line stably transfected with hGITR and a NFκB reporter gene was diluted to 5×10^5 cells/mL and 20 μL of the cell suspension was added to each well. […] 30 μL of Cell Bright Glo was added to each well and the plate was read for luminescence on the Acquest.

cynomolgus GITR = experiment: ELISA binding to GITR extracellular domain, cyno
Experimental: (§3) Binding of the MABs to GITR from various species, various alanine mutant constructs or GITR extracellular domain—was assessed using a 384-well plate was coated with rat, mouse, human or cyno GITR extracellular domain (ECD) at 50 ng per well and incubated overnight at 4° C. The plate was blocked with a solution of 1% BSA in PBS for one hour at room temperature and then rinsed three times with PBST. The MAB was then diluted to 0.5 μg/mL or 1 μg/mL in PBS and 20 μL was added to each well. The plate was incubated for 1 hour at room temperature and then washed three times with PBST. Anti-human kappa antibody (Sigma #A7164), anti-human gamma antibody (Jackson Immunoresearch 109-036-098), goat anti-mouse antibody (Jackson ImmunoResearch 115-035-071) conjugated to HRP was diluted 1:5000 in Blocking Buffer (25 μL) and added to each well, or a hrp conjugated HIS antibody (QIAGEN 1014992) diluted 1:1000 in Blocking Buffer was added. The plate was incubated for 1 hour at room temperature, and then washed six times with PBST. 25 μL of SureBlue TMB (KPL 52-00-02) substrate was added to each well and the plate was incubated for about 10 min at room temperature. Plates were read at 650 nm in a spectrophotometer.

hGITR [1] = target: T1, hGITR (Homo sapiens, UniProt Q9Y5U5); experiment: NFκB-Luciferase reporter gene assay, 293 cells with human GITR; format: cell-based; set-up: expressed in transfected cells; host or cells: HEK-293 (293) cells; settings: antibodies crosslinked
T1 sequence (Q9Y5U5 26-241): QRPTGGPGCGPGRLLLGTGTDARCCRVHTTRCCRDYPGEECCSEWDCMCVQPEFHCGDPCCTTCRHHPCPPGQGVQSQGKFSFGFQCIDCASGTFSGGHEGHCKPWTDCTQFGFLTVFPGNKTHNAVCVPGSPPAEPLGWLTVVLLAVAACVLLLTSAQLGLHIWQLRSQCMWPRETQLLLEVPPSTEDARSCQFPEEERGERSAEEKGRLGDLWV
Experimental: as §2
Functional activity of MABs were tested in an NFkB reporter gene assay for agonist activity. MAB was diluted to 6 μg/mL in PBS and incubated for 30 minutes at room temperature in the presence/absence of a 3 fold excess of F(ab′)2 fragment goat anti-human Fcγ specific crosslinker. Alternatively, MAB was diluted to 6 μg/mL in PBS and incubated for 30 minutes at room temperature in the presence/absence of a 2 fold excess of Protein A. 10 μL of incubated MAB was then added to a 384 well white clear bottomed assay plate. A HEK-293 cell line stably transfected with hGITR and a NFκB reporter gene was diluted to 5×10^5 cells/mL and 20 μL of the cell suspension was added to each well. The plate was incubated for 24 hours in a 37° C. tissue culture incubator. 30 μL of Cell Bright Glo was added to each well and the plate was read for luminescence on the Acquest.

human GITR = target: T2, human GITR (Homo sapiens, UniProt Q9Y5U5); experiment: ELISA binding to GITR extracellular domain, human
T2 construct: coated with rat, mouse, human or cyno GITR extracellular domain (ECD) at 50 ng per well
T2 sequence (Q9Y5U5 26-162 limits assumed): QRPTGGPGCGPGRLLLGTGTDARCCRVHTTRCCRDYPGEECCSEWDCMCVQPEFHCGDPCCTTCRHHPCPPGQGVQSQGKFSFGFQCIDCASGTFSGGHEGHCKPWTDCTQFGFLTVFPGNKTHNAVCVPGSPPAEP
Experimental: as §3

rodent GITR = experiment: ELISA binding to GITR extracellular domain, rodent; set-up: species or system rat, mouse
Experimental: as §3

hGITR [2] = target: T1, hGITR; experiment: Biacore binding affinity to human GITR; settings: in words
Excerpt: as §1

panel of human TNFRs = experiment: Specificity ELISA on TNFRSF family members; format: binding; settings: IgGs
Experimental: For the specificity ELISA, a crude cell lysate was made from bacteria expressing members of the TNFRSF family. To prevent nonspecific binding to the plate 50 μL of 5% BSA was added per mL of bacterial lysate. A HisGrab Nickel 96-well plate (Pierce #15142) was coated with TNFRSF containing bacterial lysate at 100 μL of lysate/BSA per well and incubated for 1 hour at room temperature. The plate was then rinsed three times with PBST, then MAB was diluted to 0.5 μg/mL in 10% FBS in PBS and 100 μL was added to each well. The plate was incubated for 1 hour at room temperature and then rinsed three times with PBST. Anti-human kappa antibody (Sigma #A7164) conjugated to HRP was diluted 1:5000 in 1:1 PBST: 10% FBS in PBS and 100 μL added to each well. The plate was incubated for 1 hour at room temperature, and then washed three times with PBST. 100 μL of SureBlue TMB substrate was added to each well and the plate was incubated for about 10 min at room temperature before stopping the reaction with 100 μL/well of 2N H2SO4. The plate was read at 450 nm in a spectrophotometer.

Molecule | binding affinities to cyno GITR (cGITR) | NFκB activation (cyno GITR) | binding to cynomolgus GITR in ELISA (cynomolgus GITR) | NFκB activity / intracellular signaling (hGITR [1]) | binding to human GITR in ELISA (human GITR) | binding to rodent GITR in ELISA (rodent GITR) | binding affinities (KD) to human GITR (hGITR [2]) | antigen specificity against a panel of human TNFRs (panel of human TNFRs)
B1 | nanomolar | promote NFκB activation | able to bind | induce NFκB activity when crosslinked, at levels similar to GITR ligand | able to bind | not rodent GITR | subnanomolar | retain high specificity for GITR
B2 | nanomolar | promote NFκB activation | able to bind | induce NFκB activity when crosslinked, at levels similar to GITR ligand | able to bind | not rodent GITR | subnanomolar | retain high specificity for GITR
B3 | – | – | – | induce NFκB activity when crosslinked, at levels similar to GITR ligand | – | – | – | –
